# Laboratory results from PubChem BioAssay AID504332 (National Center for Advancing Translational Sciences (NCATS), 2011).
# Hit rate of the full screen: of about 350,000 compounds, about 31,000 (8.9%) were called active. The inconclusive results got no clear call from the source; some entries with a clear call stand among them for comparison. Calls follow the shape of the dose curve; as a rule, active = well fitted inhibition curve with a large enough effect; inconclusive = small, poorly fitted or top-dose-only effect; inactive = no such curve, though single readings can be large or run the other way. Potencies beside an inconclusive call are fits to weak or partial responses and may not hold up.
# Molecular target: Histone-lysine N-methyltransferase EHMT2 (Homo sapiens) (UniProt Q96KQ7)
# UniProt Q96KQ7, sequence (Q96KQ7 whole entry, looked up): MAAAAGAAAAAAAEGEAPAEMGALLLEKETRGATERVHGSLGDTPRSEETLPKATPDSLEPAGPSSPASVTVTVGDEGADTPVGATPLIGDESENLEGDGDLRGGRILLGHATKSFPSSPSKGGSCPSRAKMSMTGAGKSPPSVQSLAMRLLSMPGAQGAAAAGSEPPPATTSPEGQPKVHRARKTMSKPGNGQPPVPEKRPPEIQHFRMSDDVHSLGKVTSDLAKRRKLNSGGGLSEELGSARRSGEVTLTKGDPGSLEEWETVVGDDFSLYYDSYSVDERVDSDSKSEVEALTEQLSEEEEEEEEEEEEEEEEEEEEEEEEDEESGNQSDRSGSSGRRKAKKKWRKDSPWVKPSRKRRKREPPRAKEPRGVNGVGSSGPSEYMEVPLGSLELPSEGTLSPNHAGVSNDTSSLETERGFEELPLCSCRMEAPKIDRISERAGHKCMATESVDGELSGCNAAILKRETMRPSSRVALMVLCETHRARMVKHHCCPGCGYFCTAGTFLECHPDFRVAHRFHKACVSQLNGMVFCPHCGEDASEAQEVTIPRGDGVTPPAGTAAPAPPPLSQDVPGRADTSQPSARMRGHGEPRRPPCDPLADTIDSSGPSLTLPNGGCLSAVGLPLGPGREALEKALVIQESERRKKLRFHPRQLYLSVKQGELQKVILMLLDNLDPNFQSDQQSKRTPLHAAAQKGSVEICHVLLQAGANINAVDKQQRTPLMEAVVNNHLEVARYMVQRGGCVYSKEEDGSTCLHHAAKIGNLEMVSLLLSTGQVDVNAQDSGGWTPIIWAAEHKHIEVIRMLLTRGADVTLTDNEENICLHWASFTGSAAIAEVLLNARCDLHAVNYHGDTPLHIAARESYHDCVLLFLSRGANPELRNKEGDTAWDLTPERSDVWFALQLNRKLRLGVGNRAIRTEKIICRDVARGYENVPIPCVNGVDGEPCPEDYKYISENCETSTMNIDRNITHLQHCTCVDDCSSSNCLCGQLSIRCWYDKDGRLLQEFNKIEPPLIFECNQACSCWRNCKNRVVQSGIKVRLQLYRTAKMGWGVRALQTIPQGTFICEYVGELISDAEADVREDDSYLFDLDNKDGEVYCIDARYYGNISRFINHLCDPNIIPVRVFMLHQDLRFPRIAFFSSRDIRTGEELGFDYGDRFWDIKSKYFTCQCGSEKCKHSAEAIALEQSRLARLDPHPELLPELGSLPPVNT
# Assay: qHTS Assay for Inhibitors of Histone Lysine Methyltransferase G9a; also: nearly all actives have a fitted effect of over 75% in size
# Settings: G9a H3K9 monomethylation, AlphaScreen, 2 h; activity, negative = inhibition: at 59 µM (top of the series) unless noted
# From the text: Methylated lysines, on the N-terminal tails of histone proteins serve as epigenetic markers to recruit factors that can then modify local chromatin structure to lead to functional consequences. G9a and other members of the SUV39 family of the SET domain-containing superfamily of histone lysine methyltransferases (HMT) have been identified to specifically methylate Lys9 of histone H3 (H3K9). G9a catalyzes the mono- and di-methylation of H3K9 in mammalian euchromatic regions, where the resulting H3K9me2 is indicative of transcriptional repression. […] The inhibition of G9a will result in transcriptional activation and work synergistically with DNA methyltransferase and histone deacetylase inhibitors, to kill cancer cells. This qHTS assay for identification of G9a inhibitors is a chemiluminescence based AlphaScreen (PerkinElmer). Methylation of biotinylated-histone peptide is measured through specific antibody-based detection, in conjunction with streptavidin-coated donor and anti-IgG antibody-coated acceptor beads. The method is particularly well suited for detection of inhibitors acting by the desired histone peptide competitive mechanism and is applicable to testing other HMTs. Although AlphaScreen has significant advantages with its utility in a variety of epigenetic target assays, the primary screening data provided in this deposition should be used with caution due to the prevalence of screening artifacts. An AlphaScreen counterscreen is highly recommended to be run against any putative actives to eliminate non specific artifacts. Alternatively, one can use other AlphaScreen assays in PubChem to filter out promiscuous hits. Quinn et al. A chemiluminescence-based method for identification of histone lysine methyltransferase inhibitors. Mol Biosyst 6(5): 782-8. 2010. PMID: 20567762 [2] Baell,Holloway. New substructure filters for removal of pan assay interference compounds (PAINS) from screening libraries and for their exclusion in bioassays. J Med Chem. 53(7):2719-40. 2010. PMID: 20131845 NIH Molecular Libraries Probe Production Network [MLPCN] NIH Chemical Genomics Center [NCGC] Structural Genomics Consortium (SGC) NIH Grant: 5U54 MH084681-02
# To each well of a 1,536w plate, 2ul of HMT enzyme (final 20nM) were added, using a nanoliter dispenser. The G9a- and GLP-inhibitor BIX-01294 (CID: 25150857) are used as an intraplate control, with a 16-point titration in duplicate. A Kalypsys pin-tool transferred 23nl of library compound solution in DMSO to each well. Following a 15 min incubation of enzyme with compounds at room temperature, 1ul mixture of b-H3K9 peptide substrate (final 500nM) and SAM cofactor (final 20uM) were added. Reactions were allowed to proceed at room temperature for 2 hours. Methylated b-H3K9 peptide product was detected with 0.5 ug/mL rabbit polyclonal anti-monomethyl histone H3K9 antibody (Abcam Inc., Cambridge, MA) and 20 ug/mL each streptavidin-coated donor and anti-rabbit IgG acceptor AlphaScreen beads. Antibody and beads were added in a 1ul dispense, for a final volume of 4ul, and plates were incubated, protected from the light, for 10 min at room temperature. Microplates were then read on an EnVision multilabel plate reader using the 1,536 plate HTS AlphaScreen aperture (excitation time 80 ms, measurement time 240 ms).
# % is scaled to controls: 0 for no effect and ±100 for the full control effect; potency is read from the fitted curve at half-maximal effect; tags tell the direction and shape of the fitted curve.
SMILES,Potency,"activity, negative = inhibition"
O=C(c1ccc(Cl)cc1)N1CCC(O)(CSc2ccc(Cl)cc2Cl)CC1,"inconclusive: 0.355 µM [inhibitor, full curve, poor fit]",–
O=C(COC(=O)c1cc(-c2ccncc2)nc2ccccc12)Nc1ccc2c(c1)OCO2,inactive,–
C1CCc2c(nc3nnnn3c2N2CCOCC2)C1,"inconclusive: 6.31 µM [inhibitor, single point]",–
CC(Sc1nnnn1C1CC1)C(=O)N1CC(=O)Nc2ccccc21 (stereo not drawn),–,inactive: 1.05% [at 12.7 µM]
Cc1oc(-c2ccccc2Cl)nc1CS(=O)(=O)CC(=O)NC(C)CCc1ccccc1 (stereo not drawn),"inconclusive: 25.1 µM [inhibitor, single point]",–
CCCc1nnc(NC(=O)CN2CCN(C)CC2)s1,"inconclusive: 25.1 µM [inhibitor, single point]",–
COC(=O)c1cc(O)cc(OC)c1Oc1cc(C)cc(O)c1C(=O)O,"inconclusive: 2.24 µM [inhibitor, partial curve, poor fit]",–
Cc1cccc(-c2ccc3ncnc(NCc4cccc(F)c4)c3c2)c1,–,inactive: -45.3% [at 12.7 µM]
CCOC(=O)c1cc(S(=O)(=O)N2CCN(c3cc(Cl)ccc3C)CC2)[nH]n1,active: 12.6 µM,–
O=C(CC1CCCC1)Nc1cc(S(=O)(=O)N2CCOCC2)ccc1O,"inconclusive: 3.16 µM [inhibitor, partial curve, poor fit]",–
c1cncc(CNc2ccc3c(c2)OCO3)c1,"inconclusive: 1.78 µM [inhibitor, partial curve, poor fit]",–
O=C(O)CCc1[nH]c2ccccc2c1Sc1ccccc1,"inconclusive: 0.355 µM [inhibitor, partial curve, poor fit]",–
COC(=O)c1ccc(N2CCOCC2)c(NC(=O)c2ccc(Br)o2)c1,"inconclusive: 89.1 µM [inhibitor, single point]",–
O=C(C1CCC(=O)N(C2CC2)C1)N1CCN(c2cccc(Cl)c2)CC1 (stereo not drawn),"inconclusive: 15.8 µM [inhibitor, partial curve, poor fit]",–
CCOc1ccc(NC(=O)Cn2c(=O)c(CNc3ccc(OC)cc3)cc3ccc(OC)cc32)cc1,"inconclusive: 1.58 µM [inhibitor, partial curve, poor fit]",–
CC(C)OCCCNc1ncc2c(n1)CC(c1ccccc1)CC2=O (stereo not drawn),"inconclusive: 50.1 µM [inhibitor, partial curve, poor fit]",–
COc1ccc(C(=O)c2sc(Nc3ccccc3)nc2N)cc1OC,active: 70.8 µM,–
C/C=C(\C)CN1CCN(c2ccccc2)CC1,active: 50.1 µM,–
Cc1ccccc1C(=O)NC=C1C(=O)OC(C)(C)OC1=O,"inconclusive: 63.1 µM [inhibitor, partial curve, poor fit]",–
CCOC(=O)CSc1nnc(CNC(=O)c2ccc(S(=O)(=O)N3CCCC3)cc2)n1C,"inconclusive: 1.12 µM [inhibitor, full curve, poor fit]",–
O=C(NCc1n[nH]c(=S)n1-c1ccc(F)cc1)c1ccc(S(=O)(=O)N2CCOCC2)cc1,active: 14.1 µM,–
COC(=O)c1ccc2c(c1)C(=O)/C(=C/c1ccc(O)cc1)O2,"inconclusive: 25.1 µM [inhibitor, single point]",–

SMILES,Potency,"activity, negative = inhibition"
CCOC(=O)c1cc(=O)c2ccc(OCC(=O)Nc3ccccc3)cc2o1,inactive,–
CCn1cc(/C=C/c2cc[n+](C)cc2)c2ccccc21,–,inactive: -24.7% [at 2.33 µM]
COc1ccc(-c2nc(NC(=O)c3nc4nccc(C)n4n3)sc2C)cc1,"inconclusive: 56.2 µM [inhibitor, partial curve]",–
CCOCCCn1c(=S)[nH]c2ncccc2c1=O,active: 56.2 µM,–
CN(C)S(=O)(=O)c1ccc(N2CCCC2)c(C(=O)NCC2COc3ccccc3O2)c1 (stereo not drawn),"inconclusive: 79.4 µM [inhibitor, single point]",–
Cc1nc2ccc(CCO)cc2s1,active: 1.12 µM,–
CCOC(=O)c1csc(N/N=C2\CCc3ccccc32)n1,active: 28.2 µM,–
CC(Cc1cccnc1)NC(=O)c1ccccc1OC1CCN(S(C)(=O)=O)CC1 (stereo not drawn),inactive,–
CCOc1ccc(N2CC(C(=O)Nc3nnc(Cc4ccc(OC)cc4)s3)CC2=O)cc1 (stereo not drawn),active: 10 µM,–
O=[N+]([O-])c1ccc(Sc2cccc3cccnc23)c([N+](=O)[O-])c1,"inconclusive: 11.2 µM [inhibitor, partial curve]",–
CCOC(=O)C(=NC1CCS(=O)(=O)C1)NNc1ccccc1Cl (stereo not drawn),"inconclusive: 7.08 µM [inhibitor, single point]",–
Cc1ccc(C(=O)NNC(=O)C2CCN(C(=O)OC(C)(C)C)CC2)cc1,"inconclusive: 14.1 µM [inhibitor, partial curve]",–
O=C(CN1CCc2ccccc2C1)Nc1ccccc1C(F)(F)F,active: 12.6 µM,–
Cc1csc(NC(=O)CSc2nnc(-c3ccoc3C)n2CCc2ccccc2)n1,"inconclusive: 39.8 µM [inhibitor, single point]",–
COc1ccccc1N1CCN(C(=O)CCn2c(=O)[nH]c3ccsc3c2=O)CC1,"inconclusive: 50.1 µM [inhibitor, partial curve, poor fit]",–
O=C(Nc1cccnc1)c1cccc(S(=O)(=O)N2CCc3ccccc32)c1,"inconclusive: 31.6 µM [inhibitor, partial curve, poor fit]",–
Cc1ccc(NC(C)C(=O)N/N=C/c2c[nH]c3ccccc23)cc1 (stereo not drawn),"inconclusive: 79.4 µM [inhibitor, single point]",–
CCOC(=O)C1CCCN(C(=O)c2ccc3[nH]c4c(c3c2)CC(C)CC4)C1 (stereo not drawn),"inconclusive: 3.16 µM [inhibitor, single point]",–
COc1ccc(C(=O)N2CCc3cc(OC)c(OC)cc3C2c2ccc(OC)c(OC)c2)cc1 (stereo not drawn),"inconclusive: 70.8 µM [inhibitor, single point]",–
Cc1c([N+](=O)[O-])c(C/C=N/O)nn1C,"inconclusive: 50.1 µM [inhibitor, partial curve]",–
Cc1ccc(C)c(-n2c(N)c(C(N)=O)sc2=S)c1,"inconclusive: 5.62 µM [inhibitor, partial curve, poor fit]",–
